Assay results from PubChem BioAssay AID624417 (National Center for Advancing Translational Sciences (NCATS), 2012).
Among all 410,000 compounds or so, about 6,400 (1.6%) were called active. The inconclusive results got no clear call from the source; some entries with a clear call stand among them for comparison. Calls come from the whole dose curve; as a rule, active = well fitted inhibition curve with a large enough effect; inconclusive = small, poorly fitted or top-dose-only effect; inactive = no such curve, though single readings can be large or run the other way. Potencies of inconclusive entries are left out as doubtful fits.
% is set by controls: 0 for no effect and ±100 for the full control effect; potency is the fitted concentration of half-maximal effect; tags give direction and shape of the fitted curve.
Note: nearly all actives have a fitted effect of over 55% in size.

These molecules were tested against Glucagon-like peptide 1 receptor (Homo sapiens) (UniProt P43220) (assay: qHTS of GLP-1 Receptor Inverse Agonists (Inhibition Mode)). Conditions: HEK293 GLP-1R CRE-luciferase, luminescence, 24 h, GLP-1R form is constitutively active; activity change, negative = inhibition: at 38.3 µM (top of the series) unless noted.
Sequence of UniProt P43220 (P43220 whole entry, looked up): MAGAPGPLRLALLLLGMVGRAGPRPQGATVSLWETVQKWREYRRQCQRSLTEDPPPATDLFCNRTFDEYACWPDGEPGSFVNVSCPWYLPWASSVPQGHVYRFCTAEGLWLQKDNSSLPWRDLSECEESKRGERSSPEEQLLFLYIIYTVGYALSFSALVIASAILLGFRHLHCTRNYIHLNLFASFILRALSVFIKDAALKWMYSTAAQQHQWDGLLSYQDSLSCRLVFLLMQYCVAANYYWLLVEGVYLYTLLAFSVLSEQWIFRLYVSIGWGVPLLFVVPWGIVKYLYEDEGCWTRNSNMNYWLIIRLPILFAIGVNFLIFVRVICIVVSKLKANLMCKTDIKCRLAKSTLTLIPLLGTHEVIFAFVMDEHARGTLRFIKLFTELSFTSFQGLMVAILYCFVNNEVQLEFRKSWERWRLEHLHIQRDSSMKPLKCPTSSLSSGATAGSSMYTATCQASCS
Summary of the method: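 Using stably transfected HEK293 (constitutively active GLP-1R, cAMP-luciferase reporter), compounds were incubated 24 hr and luciferase measured by luminescence.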
For COc1nccc(NCc2ccccc2)c1C#N, the “activity change, negative = inhibition” value was inactive: 4.08%. For COc1ccccc1Cc1c(-c2ccco2)nc2c(C)cc(Br)cn12, the Potency was inconclusive [inhibitor, partial curve]. In the case of COc1ccc(OC)c(-c2csc(-c3cccs3)n2)c1, the Potency is reported as inconclusive [inhibitor, partial curve, poor fit]. For Cc1cc(Br)cn2c(Cc3cccc(F)c3)c(-c3ccc(Cl)cc3)nc12, the Potency was inconclusive [inhibitor, partial curve, poor fit]. In the case of O=C(Cc1ccc(Cl)cc1)Nc1ccccc1N1CCN(C(=O)c2ccccc2)CC1, the Potency is reported as inconclusive [inhibitor, partial curve, poor fit]. In the case of Cc1ccc(N2CCN(C(=O)c3ccccc3)CC2)c(C)c1, the Potency is reported as inconclusive [inhibitor, single point]. In the case of CC(Cc1cccs1)NC(=S)Nc1ccc(Cl)c(Cl)c1 (stereo not given), the Potency is reported as inconclusive [inhibitor, partial curve, poor fit]. CC1C(c2ccccc2)N(C)C(c2ccccc2)C(C)C1(O)C#Cc1ccccc1 (stereo not given) was tested, and the Potency was inconclusive [inhibitor, partial curve, poor fit]. In the case of CN(C)Cc1csc(NC(=O)Nc2ccccc2Cc2ccccc2)n1, the Potency is reported as inconclusive [inhibitor, partial curve, poor fit]. For CCc1ccc(-c2cc(C)no2)cc1S(=O)(=O)N1CCN(C(=O)c2ccco2)CC1, the Potency was inconclusive [inhibitor, full curve, poor fit]. For CCOC(=O)CC1(CCc2ccccc2)Oc2ccccc2O1, the Potency was inconclusive [inhibitor, single point]. COCCNC(=S)N(CCc1c(C)[nH]c2ccc(F)cc12)Cc1cccs1 was tested, and the Potency was inconclusive [inhibitor, single point]. O=C(CSc1nc2cc3ccccc3cc2[nH]1)Nc1ccc(F)cc1 was tested, and the Potency was inconclusive [inhibitor, partial curve, poor fit]. In the case of CCOC(=O)c1ccc(NC(=S)N2CCCC2c2ccc(OC)c(OC)c2)cc1 (stereo not given), the “activity change, negative = inhibition” value is reported as inactive: -29.6%. Cc1c(OCC(=O)NCC(O)c2ccccc2)ccc2c(-c3ccccc3)cc(=O)oc12 (stereo not given) was tested, and the “activity change, negative = inhibition” value was inactive: -14.9%. With O=C(CSc1nnc(-c2ccccc2F)n1C1CC1)NC(=O)c1cccc([N+](=O)[O-])c1 the “activity change, negative = inhibition” value was inactive: 11.1%. Cn1c(CO)nc2cc(N)ccc21 was tested, and the “activity change, negative = inhibition” value was inactive: 2.39%. CCCCc1nc2cc(C(=O)NCc3cn(C)nc3C)ccc2o1 was tested, and the “activity change, negative = inhibition” value was inactive: 5.59%. CC(C)(C)C(C(=O)NC1CCCC1)N1CCN(c2ncccc2C#N)CC1 (stereo not given) was tested, and the “activity change, negative = inhibition” value was inactive: -7.25%. In the case of CCOc1ccc(CNC(=O)Cn2ccc3cc(S(=O)(=O)N4CCCC4)ccc32)cc1, the “activity change, negative = inhibition” value is reported as inactive: -20.7%. CCOC(=O)c1c(C)nc2c(c(SC)nn2-c2ccccc2)c1N was tested, and the “activity change, negative = inhibition” value was inactive: 6.46%. COc1cccc(Nc2nc(C(N)Cc3ccccc3)cs2)n1 (stereo not given) was tested, and the Potency was inconclusive [inhibitor, single point]. Nc1nc(C23CC4CCC(CC(C4)C2)C3)cs1 was tested, and the Potency was inconclusive [inhibitor, partial curve, poor fit]. CC(=O)CN1Cc2ccccc2/C1=N\C(=O)Nc1ccccc1 was tested, and the “activity change, negative = inhibition” value was inactive: 3.82%. COc1ccc(CS(=O)(=O)CC(C)(O)c2ccc(Cl)cc2)cc1 (stereo not given) was tested, and the Potency was inconclusive [inhibitor, single point]. O=C(CN1CCC(n2nnc3ccccc32)CC1)Nc1ccc2c(c1)CCC2 was tested, and the Potency was inconclusive [inhibitor, partial curve, poor fit]. In the case of Cc1ccc(C(=O)Nc2ccccc2Sc2ccccc2)cc1, the “activity change, negative = inhibition” value is reported as inactive: 9.06%. COc1cccc(/C=N/NC(=O)c2nnn(-c3nonc3N)c2CN(C)c2ccccc2)c1 was tested, and the Potency was inconclusive [inhibitor, single point]. O=C1c2ccccc2C(=O)C1c1ccnc2ccccc12 was tested, and the Potency was inconclusive [inhibitor, full curve, poor fit]. With O=C1NC(c2ccccc2)(C(F)(F)F)SC2=CCCCCN12 (stereo not given) the Potency was inconclusive [inhibitor, partial curve]. With COc1ccc(CCC(=O)Nc2ccc(Br)cn2)cc1 the Potency was inconclusive [inhibitor, single point]. With Cn1cc(Br)c(C(=O)NN2C(=O)C3C(C2=O)C2C=CC3C23CC3)n1 (stereo not given) the “activity change, negative = inhibition” value was inactive: 5.51%. For O=C1[C@H]2[C@@H](c3ccc(F)cc3)N3C(=O)N(c4ccc(C(F)(F)F)cc4)C(=O)[C@@]3(Cc3ccccc3)[C@H]2C(=O)N1C1CCCCC1, the Potency was active: 2.24 µM. O=[N+]([O-])c1ccc2nc(-c3ccncc3)[nH]c2c1 was tested, and the “activity change, negative = inhibition” value was inactive: 53.4%. With CCCN(CCC)C(=O)c1cc(-c2ccc3c(c2)OCO3)nc2ccccc12 the Potency was inconclusive [inhibitor, partial curve, poor fit]. With CCCNC(=S)N1CCC(C(=O)c2ccc(F)cc2)CC1 the Potency was inconclusive [inhibitor, full curve, poor fit]. With Cc1oc(-c2cccc(Cl)c2)nc1CN1CCC(C(=O)N2CCN(c3ccccc3F)CC2)CC1 the Potency was inconclusive [inhibitor, full curve, poor fit]. CCN(CC(=O)NCc1ccc(F)cc1)C(=O)CN1CCN(c2cc(Cl)ccc2C)CC1 was tested, and the Potency was inconclusive [inhibitor, single point]. In the case of CCCCCN1C(C(=O)c2ccccc2)=C(NC(=O)c2ccc(C)cc2)c2ccccc2S1(=O)=O, the Potency is reported as inconclusive [inhibitor, partial curve]. For O=C(Cc1ccc(Br)cc1)Nc1cccc(S(=O)(=O)N2CCCCC2)c1, the Potency was active: 10 µM. For Cc1ccsc1/C=N/NC(=O)Cn1nc(C)c([N+](=O)[O-])c1C, the “activity change, negative = inhibition” value was inactive: -25.9%. For CCCOc1ccc(-c2cn3ccccc3n2)cc1, the Potency was active: 7.08 µM. With CSCSC1=C(C#N)C(c2ccccc2Cl)C(C(C)=O)=C(C)N1 (stereo not given) the “activity change, negative = inhibition” value was inactive: -3.13%. For COc1ccc(NS(=O)(=O)c2cc(C)ccc2C)cc1, the Potency was inconclusive [inhibitor, partial curve, poor fit]. In the case of C[C@H]1CCC(=O)N([C@H](CSc2ccc(Br)cc2)Cc2ccccc2)CC1, the Potency is reported as inconclusive [inhibitor, partial curve, poor fit].
